In the supplement of paper PMC11417369:
± gives the standard deviation of the averaged measurements. The list shows a part of the results.

These sequences were tested on PfAP2-I AP2 domain 3 (GST-tagged) (assay: gcPBM binding intensity (ln(normalized median fluorescence intensity)); higher = stronger DNA binding).
How it was run: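 After 1 h on an Agilent 4 × 180k array of primer-extended double-stranded 36-bp intergenic genomic probes and negative controls, bound GST-tagged P. falciparum DNA-binding domains were detected with Alexa488 anti-GST antibody and scanned at 488 nm. The domains had been expressed in E. coli, and binding took place in 1× PBS with 1% milk, 0.2 mg/ml BSA, 0.5% salmon testes DNA and 0.03% Triton X-100. Binding intensity is the highest Masliner-normalised natural-log median intensity across replicate spots of either probe orientation.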

Sequence	gcPBM binding intensity (ln)
ATATAAGTACGGCATGCATGCACATTTTTTTATTCC [TGCATGCA_site101]	8.24 ± 0.86
TTCCTATAAAAAAACACACACATATAAATATAAATA [CACACA_site7154]	7.68 ± 0.34
TAATACTTAAAATGTTGTACATAATAATTTTATATT [XGTACX_site5403]	7.86 ± 0.23
TATAACAAGTAATGGTGTACATTATATTATGTAATA [XGTACX_site2761]	7.76 ± 0.54
CATATGCGTCTTGCCTTGCACACTTTTATGAAAAAA [CACACA_site2055]	8.5 ± 0.35
TATATATATATATATACATGCATTTCTCATGTACAT [TGCATGCA_site621]	9.62 ± 0.71
GTCATCATAATCTATTGTACAAAAATTTATACAGAT [XGTACX_site1059]	8.02 ± 0.45
ATAAATACATTAAAATGTACATAAAAATATTACTGG [XGTACX_site1484]	7.68 ± 0.35
TATAAAAATAAGTATACACACAAAATGCGTAACTTT [CACACA_site1295]	8.27 ± 0.91
TACATTAAACGAATAGTGCAAGAAGTATTCGTATAA [GTGCAC_site9939]	9.28 ± 0.18
TTACAAAACCGATGTTGTACATTCAATAGATAATGT [XGTACX_site3806]	7.72 ± 0.59
TAGTTGTGAGTTACATGTACATGTATTTATTTTTTA [XGTACX_site7088]	7.84 ± 0.48
AATGTATAAAAGTTTTGTACATATTCTCACACATAT [XGTACX_site965]	7.72 ± 0.49
ATATACCATATGCATGGTACACATTTACAACAAAAA [XGTACX_site3142]	7.79 ± 0.43
ATAACGTAAACAATGTGGACACATACATAAATATAT [XGTACX_site707]	7.86 ± 0.53
TTTATTAAATAAAGCACACACAACAACTTTTCACAA [CACACA_site4132]	9.63 ± 0.45
GATAACAATATGTGTACACATTTATATCTCCACATA [CACACA_site5442]	8.3 ± 0.13
ATATAGAATGTTTACACACGCAATAAATATATATAT [CACACA_site217]	9 ± 0.042
GCGTATCATTTTAAAACACACAGGATTTTATAAGTA [CACACA_site1225]	7.68 ± 0.7
ATGGTATAAAAAAATACACACTTATTTATATTCTTA [CACACA_site6370]	7.54 ± 0.61
AAAAATAACATATAAACACACATATAGATTTATATA [CACACA_site7738]	7.49 ± 0.37
TGTAGTCTGGAGAAGAGTACACAGTATCTGGTAGCT [XGTACX_site2036]	7.78 ± 0.67
TTAAAAAATCACAACACACACACACGCAAAAAAAAA [CACACA_site6793]	8.32 ± 0.4

Sequence	gcPBM binding intensity (ln)
AAATATTACATACACGCACACATTAAAATATTTAAA [CACACA_site5440]	8.22 ± 0.33
ATGTACCTTCAAACTACACACAAATGAAGGAACACA [CACACA_site3330]	7.79 ± 0.38
ATCTAATAAAAATACACACACATATGGTTTGTGAAT [CACACA_site6962]	7.54 ± 0.4
TACATTATAAATATTACACACTTTATAAAATAATAA [CACACA_site6096]	7.72 ± 0.32
ACCGTGGGAGGACACACACACACACGCACATATATA [CACACA_site6289]	8.21 ± 0.47
AAATAACTTTTAAATACACACGTAAAATATATTGTG [CACACA_site9085]	7.7 ± 0.52
TCCTTTTTTTTTTATGCACACACAATTATACATTCC [CACACA_site9287]	10.3 ± 0.28
ATAATATTTTTATGTACACACCTTAATCCTTAAAAG [CACACA_site5881]	8.07 ± 0.43
TTAACCACTAAAAGTACACACATATATACATATATA [CACACA_site3912]	8.085 ± 0.049
TCTATTAATTAATATACACACATTATATATATATAT [CACACA_site8815]	9.375 ± 0.049
AATATATATATATATATATTTTTGTTAGAATATGGA [CACACA_negctrl_site212]	7.64 ± 0.28
AAATAAATAAATAGAGTGCATATATATATATATTTT	10.01 ± 0.042
CTTTTTATTTATCATACACACACAGAAAAAAAAAAA [CACACA_site7935]	8.17 ± 0.45
ATATACAAAGGATTAACACACATATTATTATAGATA [CACACA_site6966]	7.58 ± 0.46
ATTATGCACAGACACACACACACACTACTAAAAAAT [CACACA_site7252]	10 ± 0.66
ATAGGAGAAAAAGAATGTACGTATGATGTTGAAAAT [XGTACX_site7779]	8.16 ± 0.65
AATTTTTAGAAGAACACACACATATATATTATGACC [CACACA_site246]	7.75 ± 0.65
AAAAAAAATAAAAATATATATATATATATATAAATA [GTGCAC_negctrl_site676]	7.82 ± 0.53
AAGCATTTTTTTTAAAGCCTGTTCATCATCCTTACC [CACACA_negctrl_site129]	7.82 ± 0.25
TATTTATATATTTGTTGTACGTATTTATATATTCTT [XGTACX_site3622]	7.87 ± 0.41
TTATATTAATATTATATTTAAAAATAAAATATAAAT [TGCATGCA_negctrl_site79]	7.39 ± 0.11
ATTTTTATATATATCTGTACTAAAAAAAAAAAAAAA [XGTACX_site5258]	8.03 ± 0.45
AGAAGTAAAAAAATAGCACACACACTAATACCAACA [CACACA_site8354]	8.36 ± 0.45

Sequence	gcPBM binding intensity (ln)
AAACAAAAAAGAAAAACAATGAGATAAAGAAGAGAA [CACACA_negctrl_site804]	7.82 ± 0.77
TTTAATTATTTATTTTGTACATATATTATATATATA [XGTACX_site5760]	8.42 ± 0.69
AAAAGAAAAATATTCACACATATAAATAATATATAA [CACACA_site4201]	7.29 ± 0.63
ATATATACATACATATGTACATATGTAGATATATTT [XGTACX_site1230]	7.64 ± 0.42
ATTATGAAATATCGTGCACACACGAATAATATAAGA [CACACA_site1294]	10.2 ± 0.27
TATTTGTTTAAATTCACACACGTATATATATTTATA [CACACA_site5651]	7.74 ± 0.52
TACGTTTTAAAACACACACACAAAAAAAAAAAAAAA [CACACA_site3876]	8.11 ± 0.38
ATTTTTTTTGTTTATTCTTATGTGGTTATTAAATTA [CACACA_negctrl_site1000]	7.89 ± 0.79
AAAAGAGAAATGGGCACACACACACCCATTATATAT [CACACA_site1530]	7.8 ± 0.76
ACCATATAAAGTTAGGTGCATTTGTATGTATCTTAC	10.5 ± 0.44
TTATTTTGATCTGGTTGTACATATAATATATAGTGG [XGTACX_site357]	8.08 ± 0.61
TCTTGTTCGCCCTATTGTACAAACATATATTGTGAT [XGTACX_site2884]	8.32 ± 0.67
ATTAATTTGATTTTAATAAGAATATTTGTGGGGAAT [GTGCAC_negctrl_site198]	7.75 ± 0.54
TGAATAATAAAAAATACACACACATATATATATATT [CACACA_site9146]	7.58 ± 0.36
TTTTATTTTTGTTGGTCCCTCATTTAAGTTAATAAA [TGCATGCA_negctrl_site465]	8.07 ± 0.4
TTTTCAATATATATATGCTGAATTTATAATTTGTAT [CACACA_negctrl_site1774]	7.59 ± 0.32
ATATTGATTTGTGGCACACATATAATATATTCCTAT [CACACA_site3046]	8.57 ± 0.58
CCTTTTTTTTTTTTATGTACTAAAATAAAATTAGAA [XGTACX_site5956]	7.82 ± 0.35
AAATATTTATATGTTACACACTGTTTATAACTTTCT [CACACA_site6752]	7.78 ± 0.7
ATAAATGACAGACACACACACAAAAAAAAAAAACAA [CACACA_site2626]	7.75 ± 0.35
ACCCTATCTGTAACTACACACCGCATATTGTTTACT [CACACA_site5661]	8.84 ± 0.028
CTTCTGTAATTATCACGTACATATAATAATTAAAAT [XGTACX_site8973]	8.04 ± 0.22
TTTTTATCTTTGCTGTGTACATAAATAAAAATAACT [XGTACX_site7625]	8.31 ± 0.35

Sequence	gcPBM binding intensity (ln)
TTTTTTTTGATAAGTTGTACAATGATATATATCCCT [XGTACX_site3560]	7.84 ± 0.49
ATAGTTTAATTTATATGTACATATAATATTGATTTG [XGTACX_site7520]	7.89 ± 0.41
TATATTTTATATTGGTGTACAATTTTTTTTTTTTTT [XGTACX_site4291]	8.16 ± 0.33
TTACGCGCTTATTACACACACATACAAATAAGGATT [CACACA_site3486]	8.06 ± 0.47
AAAAATAAAAAAAATACATGCAATGAAACATTTATT [TGCATGCA_site263]	7.49 ± 0.81
AACAAAATAAAAAAAACATGCAAGAATTCTTATATG [TGCATGCA_site714]	7.49 ± 0.78
ATTTGTATTGTATATGCACACATAGAACACTTTTTT [CACACA_site9373]	9.35 ± 0.042
TTGTGTTTGAAAAAATGTACATGTGTCTTACAACAA [XGTACX_site8371]	8.11 ± 0.47
TTATACAGATATTTAACACACATTTTATAAAGTGCC [CACACA_site4851]	7.98 ± 0.47
ACAATTTATATTATATGTACTTAAAAAGTTCGTAAA [XGTACX_site6421]	7.71 ± 0.42
TTTTATACATAAATATGTACGTATATATAATGAATT [XGTACX_site1337]	7.84 ± 0.12
GCCTCATCGTAGCAGTGTACGTTTTTTTTTTTTTTT [XGTACX_site8648]	8.97 ± 0.41
TATATATATTTATGTACACACACACCGATAAATAAA [CACACA_site4404]	8.31 ± 0.39
TATAACATATGACACACACACATACATACACAAAAA [CACACA_site6935]	8.16 ± 0.31
ATAACAACCCAATGTTGTACATTTAAATATAACGTA [XGTACX_site7114]	7.69 ± 0.44
ATAAATAAAAACACAAAACAAAACAAAACAAAACAA [CACACA_negctrl_site1257]	7.86 ± 0.98
ATATATATTGTACTAGTGCATATATATACATATATT	9.87 ± 0.071
TTTCATCTATATGAAACACACAAAGGAAAAAAAATT [CACACA_site7869]	7.9 ± 0.69
TAATAAATGGCTAGTTGTACAGAAATATAAATATTA [XGTACX_site4579]	7.63 ± 0.4
AGATTCAAAAATAAAACATGCAAAAATAAAACGTGC [TGCATGCA_site501]	8.19 ± 0.7
